{"source": "paper PMC4336329", "about": "(PLoS ONE, 2015)", "note": "In all, about 310,000 compounds went through this assay and about 2,200 (0.71%) showed an effect of 50% or more. Effects have a minus sign here. The list shows a part of the results."}
{"molecular_target": "human ether-à-go-go-related gene (hERG) potassium channel (human, UniProt Q12809)", "sequence (Q12809 whole entry, looked up)": "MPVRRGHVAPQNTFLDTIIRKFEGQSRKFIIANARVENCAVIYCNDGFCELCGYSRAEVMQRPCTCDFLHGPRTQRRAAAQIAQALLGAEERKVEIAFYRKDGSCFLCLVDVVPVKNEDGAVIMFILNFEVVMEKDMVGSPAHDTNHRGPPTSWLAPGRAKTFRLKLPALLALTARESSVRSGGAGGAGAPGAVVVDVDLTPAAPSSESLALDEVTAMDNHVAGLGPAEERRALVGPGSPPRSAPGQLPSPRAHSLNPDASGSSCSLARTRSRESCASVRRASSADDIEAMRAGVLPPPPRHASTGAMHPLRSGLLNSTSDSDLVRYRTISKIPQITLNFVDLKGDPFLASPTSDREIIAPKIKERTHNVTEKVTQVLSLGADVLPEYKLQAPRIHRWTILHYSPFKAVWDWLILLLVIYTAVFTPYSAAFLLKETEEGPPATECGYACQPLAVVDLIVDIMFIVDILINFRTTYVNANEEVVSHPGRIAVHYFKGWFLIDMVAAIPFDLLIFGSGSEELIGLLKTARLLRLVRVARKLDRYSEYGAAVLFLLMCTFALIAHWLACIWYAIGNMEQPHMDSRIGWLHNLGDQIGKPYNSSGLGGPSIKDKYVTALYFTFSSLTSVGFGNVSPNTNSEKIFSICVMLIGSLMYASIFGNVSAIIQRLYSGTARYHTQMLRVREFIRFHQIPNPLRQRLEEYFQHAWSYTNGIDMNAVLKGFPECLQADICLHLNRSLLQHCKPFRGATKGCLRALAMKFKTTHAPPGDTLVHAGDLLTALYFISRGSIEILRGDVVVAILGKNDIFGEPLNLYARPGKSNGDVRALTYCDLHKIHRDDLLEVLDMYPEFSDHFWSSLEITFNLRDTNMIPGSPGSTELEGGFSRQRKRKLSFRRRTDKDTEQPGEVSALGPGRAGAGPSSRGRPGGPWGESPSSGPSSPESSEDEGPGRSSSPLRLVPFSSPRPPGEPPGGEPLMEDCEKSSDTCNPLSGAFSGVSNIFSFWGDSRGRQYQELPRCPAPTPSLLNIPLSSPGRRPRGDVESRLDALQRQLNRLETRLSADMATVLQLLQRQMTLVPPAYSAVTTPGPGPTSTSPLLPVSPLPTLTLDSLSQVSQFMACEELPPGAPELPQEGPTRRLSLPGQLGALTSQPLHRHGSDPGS", "assay": "primary screen, population patch clamp on CHO cells stably expressing hERG", "units": {"hERG current change (%, negative = inhibition) at 1uM": "%"}}
{"compound": "CCOC(=O)Nc1sc2c(c1C(N)=O)CCC(C)C2", "note": "(stereo not shown)", "hERG current change (%, negative = inhibition) at 1uM": 9.64}
{"compound": "Cc1cc2c(c(=O)o1)C(Cc1ccccc1)C(C#N)=C(N)O2", "note": "(stereo not shown)", "hERG current change (%, negative = inhibition) at 1uM": 11.1}
{"compound": "CCOC(=O)c1cc(-c2csc(COc3ccccc3)n2)on1", "hERG current change (%, negative = inhibition) at 1uM": 3.66}
{"compound": "Cn1c(SCC(=O)NCCc2ccccc2)nc2c([nH]c3ccccc32)c1=O", "hERG current change (%, negative = inhibition) at 1uM": 16.9}
{"compound": "COCCCNS(=O)(=O)c1cccc(S(=O)(=O)c2cccc(S(=O)(=O)NCCCOC)c2)c1", "hERG current change (%, negative = inhibition) at 1uM": 14.1}
{"compound": "Cc1cc(Cl)ccc1NC(=S)N1CCC(C(N)=O)(N2CCCCC2)CC1", "hERG current change (%, negative = inhibition) at 1uM": 3.64}
{"compound": "O=C(Nc1ccc(S(=O)(=O)Nc2ncccn2)cc1)c1cc([N+](=O)[O-])ccc1Cl", "hERG current change (%, negative = inhibition) at 1uM": 22.3}
{"compound": "COc1ccccc1CCNCc1ccc(OC)c(OC)c1OC.O=C(O)C(=O)O", "hERG current change (%, negative = inhibition) at 1uM": 12.2}
{"compound": "Cc1c(NC(=O)C(C)Oc2ccccc2F)c(=O)n(-c2ccccc2)n1C", "note": "(stereo not shown)", "hERG current change (%, negative = inhibition) at 1uM": 12.1}
{"compound": "COc1cccc(NC(=O)c2ccc(C(=O)c3ccccc3)o2)c1", "hERG current change (%, negative = inhibition) at 1uM": 5.74}
{"compound": "CCCCNC(=O)CCc1nc2cccnc2n1Cc1ccc(OC)cc1", "hERG current change (%, negative = inhibition) at 1uM": -0.167}
{"compound": "Cc1nn2c(NCCN(C)C)c3c(nc2c1-c1ccccc1)CCC3", "hERG current change (%, negative = inhibition) at 1uM": 6.68}
{"compound": "COc1cc(/C=N\\NC(=O)c2nonc2N)c(OC)cc1Br", "hERG current change (%, negative = inhibition) at 1uM": 8.74}
{"compound": "Cc1ccc(OCC(=O)N/N=C/c2cccc3cccnc23)cc1", "hERG current change (%, negative = inhibition) at 1uM": 10.6}
{"compound": "COc1cccc(N2[C@@H](CC(C)=O)c3ccccc3S2(=O)=O)c1", "hERG current change (%, negative = inhibition) at 1uM": 11.5}
{"compound": "Cc1ccc(NS(=O)(=O)c2cc(C(=O)NCc3ccccn3)ccc2Cl)cc1C", "hERG current change (%, negative = inhibition) at 1uM": -6.33}
{"compound": "CCn1c(=O)cc(OCC(=O)NC(C)c2ccc3c(c2)OCCO3)c2ccccc21", "note": "(stereo not shown)", "hERG current change (%, negative = inhibition) at 1uM": 13.1}
{"compound": "CC1CN(Cc2nc3c(c(=O)n(C)c(=O)n3C)n2CCc2ccccc2)CC(C)O1", "note": "(stereo not shown)", "hERG current change (%, negative = inhibition) at 1uM": -8.54}
{"compound": "CC(C)(C)c1ccc(OCC(=O)NNC(=O)c2cccnc2)cc1", "hERG current change (%, negative = inhibition) at 1uM": 13.8}
{"compound": "C=CC(=O)NC(NC(=O)C=C)c1ccccc1F", "hERG current change (%, negative = inhibition) at 1uM": 8.02}
{"compound": "COc1ccc(C(=O)O)cc1S(=O)(=O)N(C)CCc1cccnc1", "hERG current change (%, negative = inhibition) at 1uM": 15.6}
{"compound": "Nc1nc(-c2sc3nc4c(cc3c2N)CCCC4)nc(N2CCOCC2)n1", "hERG current change (%, negative = inhibition) at 1uM": 15.7}
{"compound": "CCOC(=O)Cn1cc(C#N)c(=O)[nH]c1=O", "hERG current change (%, negative = inhibition) at 1uM": 5.27}
{"compound": "COC(=O)C1=C(c2ccc(F)cc2OCc2ccccc2)C[C@@H]2CC[C@H]1N2C", "hERG current change (%, negative = inhibition) at 1uM": 2.95}
{"compound": "CC(C)(C)C(=O)Nc1ccc(C(=O)OC2CCCCC2)cc1", "hERG current change (%, negative = inhibition) at 1uM": 0.866}
{"compound": "CN1CCN(NC(=O)CN2C(=O)S/C(=C\\c3c(Cl)cccc3Cl)C2=O)CC1", "hERG current change (%, negative = inhibition) at 1uM": 6.28}
{"compound": "O=C(Nc1ccc(CN2CCOCC2)cc1)c1cccc(-c2cc3ccccc3oc2=O)c1", "hERG current change (%, negative = inhibition) at 1uM": 8.38}
{"compound": "NNC(=O)/C(=C\\c1ccco1)NC(=O)c1ccco1", "hERG current change (%, negative = inhibition) at 1uM": 3.05}
{"compound": "CC(C)c1cn(C2OC(COC(=O)c3ccccc3)C(OC(=O)c3ccccc3)C2OC(=O)c2ccccc2)c(=O)[nH]c1=O", "note": "(stereo not shown)", "hERG current change (%, negative = inhibition) at 1uM": 13.2}
{"compound": "Clc1ccccc1-c1nc(-c2ccc(Br)o2)no1", "hERG current change (%, negative = inhibition) at 1uM": 15.4}
{"compound": "CCOc1ccc(C(=O)CSCC(=O)O)cc1", "hERG current change (%, negative = inhibition) at 1uM": 13.7}
{"compound": "CCN1CCN(C(=O)COc2ccc(S(=O)(=O)N(C)Cc3ccccc3)cc2)CC1", "hERG current change (%, negative = inhibition) at 1uM": -24.7}
{"compound": "Cc1cc(N2CCN(C)CC2)nc2ccc(NC(=O)CCC(=O)N3CCN(c4ccc([N+](=O)[O-])cc4)CC3)cc12", "hERG current change (%, negative = inhibition) at 1uM": 13.8}
{"compound": "COC(=O)c1ccccc1S(=O)(=O)N1CCC(C(=O)OCC(=O)c2ccccc2OC)CC1", "hERG current change (%, negative = inhibition) at 1uM": 5.75}
{"compound": "COc1cc(CCC(=O)OCC(N)=O)cc(OC)c1OC", "hERG current change (%, negative = inhibition) at 1uM": 4.57}
{"compound": "O=C(COc1ccc([N+](=O)[O-])cc1)NNC(=O)Nc1ccccc1F", "hERG current change (%, negative = inhibition) at 1uM": 7.31}
{"compound": "C/C(=N\\NC(=O)c1cc(C)oc1C)c1ccc(N2CCOCC2)cc1", "hERG current change (%, negative = inhibition) at 1uM": 12.3}
{"compound": "COc1ccc(O)c(C(=O)c2cc(C#N)c(=O)n(-c3c(C)n(C)n(-c4ccccc4)c3=O)c2)c1", "hERG current change (%, negative = inhibition) at 1uM": 11.8}
{"compound": "COc1cccc(N2C(=O)CC(N3CCN(CCN=CC4=C(O)CC(C)(C)CC4=O)CC3)C2=O)c1", "note": "(stereo not shown)", "hERG current change (%, negative = inhibition) at 1uM": 12.5}
{"compound": "CN1C(=O)C(CC(=O)N2CCN(C(c3ccccc3)c3ccccc3)CC2)N(C)C1=O", "note": "(stereo not shown)", "hERG current change (%, negative = inhibition) at 1uM": 8.2}
{"compound": "Cn1c(SCC(=O)Nc2ccc(N3CCOCC3)cc2)nnc1-c1ccco1", "hERG current change (%, negative = inhibition) at 1uM": 2.86}
{"compound": "CC(C)[N+](C)(CCOC(=O)C1c2ccccc2Oc2ccccc21)C(C)C.[Br-]", "hERG current change (%, negative = inhibition) at 1uM": 11.2}
{"compound": "Cc1cnc(C(=O)OCc2ccc(COC(=O)c3cnc(C)cn3)cc2)cn1", "hERG current change (%, negative = inhibition) at 1uM": 8.16}
{"compound": "Cc1cccc(NC(=O)CCC(=O)OCc2ccc(Br)cc2)c1", "hERG current change (%, negative = inhibition) at 1uM": -5.35}
{"compound": "COc1ccc2c(c1)c(C(=O)CN1CCC3(CC1)OCCO3)c(C)n2Cc1ccccc1", "hERG current change (%, negative = inhibition) at 1uM": -11.5}
{"compound": "O=C(COc1ccccc1)Nc1ccc(S(=O)(=O)Nc2ccccn2)cc1", "hERG current change (%, negative = inhibition) at 1uM": 10.5}
{"compound": "O=C(COC(=O)c1ccc2c(c1)OCO2)Nc1nc(-c2ccccc2)cs1", "hERG current change (%, negative = inhibition) at 1uM": 11.4}
{"compound": "CC1CCc2nc(N)c(C#N)c(-c3ccncc3)c2C1", "note": "(stereo not shown)", "hERG current change (%, negative = inhibition) at 1uM": 11}
{"compound": "CC(C)Nc1nc(N(c2ccccc2)c2ccccc2)nc(-n2ccnc2)n1", "hERG current change (%, negative = inhibition) at 1uM": 16.3}
{"compound": "Cc1ccc(CN(C)CCc2ccccn2)cc1", "hERG current change (%, negative = inhibition) at 1uM": -10.1}
{"compound": "O=C1CC(N2CCSCC2)C(=O)N1c1cccc(Br)c1", "note": "(stereo not shown)", "hERG current change (%, negative = inhibition) at 1uM": 5.73}
{"compound": "COc1ccc(C(=O)C2CCCN(C(=O)C3=CCCC3)C2)c(C)c1", "note": "(stereo not shown)", "hERG current change (%, negative = inhibition) at 1uM": 2.5}
{"compound": "O=C(N/N=C/c1cc(Br)c(Br)o1)c1cccnc1", "hERG current change (%, negative = inhibition) at 1uM": 6.65}
{"compound": "Cc1cc(C)nc(NC(=O)c2ccc([N+](=O)[O-])c(C)c2)n1", "hERG current change (%, negative = inhibition) at 1uM": 15.4}
{"compound": "CSc1ncc(/C=C2/C(=O)NC(=O)N(c3ccc(C(C)C)cc3)C2=O)cn1", "hERG current change (%, negative = inhibition) at 1uM": 22.2}
